{
  "sequences": {"note": "Amino acid sequences for entries named in this document (tags omitted).", "UniProt Q9FDW1": "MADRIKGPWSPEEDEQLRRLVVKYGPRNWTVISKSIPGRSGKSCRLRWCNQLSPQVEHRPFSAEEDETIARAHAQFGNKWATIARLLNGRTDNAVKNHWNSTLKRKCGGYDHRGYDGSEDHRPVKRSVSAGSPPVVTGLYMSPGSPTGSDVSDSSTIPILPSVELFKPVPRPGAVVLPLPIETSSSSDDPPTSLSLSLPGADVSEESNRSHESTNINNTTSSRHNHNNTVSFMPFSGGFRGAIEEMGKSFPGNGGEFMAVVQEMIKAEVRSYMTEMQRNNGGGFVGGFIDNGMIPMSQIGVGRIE", "UniProt Q9SN12": "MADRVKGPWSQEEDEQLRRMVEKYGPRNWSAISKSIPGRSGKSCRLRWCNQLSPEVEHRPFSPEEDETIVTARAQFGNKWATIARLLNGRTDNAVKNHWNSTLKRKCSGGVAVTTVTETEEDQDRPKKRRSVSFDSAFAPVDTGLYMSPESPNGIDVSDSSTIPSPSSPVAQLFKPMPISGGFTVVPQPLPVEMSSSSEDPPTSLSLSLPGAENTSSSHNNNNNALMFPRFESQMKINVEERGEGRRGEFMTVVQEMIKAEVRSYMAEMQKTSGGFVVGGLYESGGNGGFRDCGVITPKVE", "UniProt Q8VZS8": "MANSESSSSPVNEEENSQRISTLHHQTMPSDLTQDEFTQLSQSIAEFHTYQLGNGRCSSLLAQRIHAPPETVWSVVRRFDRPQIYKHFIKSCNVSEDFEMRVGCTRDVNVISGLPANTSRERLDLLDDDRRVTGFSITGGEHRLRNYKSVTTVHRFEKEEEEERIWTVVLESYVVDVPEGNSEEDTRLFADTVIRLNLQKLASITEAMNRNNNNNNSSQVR"},
  "source": "paper PMC4219380",
  "key": {"[1]": {"target": "AtMYBR1/AtMYB44 full length fused to the GAL4 DNA-binding domain (pGBT9-MYBR1) (Arabidopsis thaliana) (UniProt Q9FDW1)", "assay": "two-hybrid; individual clones: pGBT9-MYBR1 or pGBT9-MYBR2 in yeast Y2H Gold mated 1 d at 30°C with pGADT7 fusions in yeast Y187; screened on DDO, DDO/X/A and QDO/X/A; also with phytohormones and inhibitors of auxin signaling (PCIB) and transport (TIBA, NPA), which did not affect the interactions"}, "[2]": {"target": "AtMYBR2/MYB77 full length fused to the GAL4 DNA-binding domain (pGBT9-MYBR2) (Arabidopsis thaliana) (UniProt Q9SN12)", "assay": "two-hybrid; individual clones: pGBT9-MYBR1 or pGBT9-MYBR2 in yeast Y2H Gold mated 1 d at 30°C with pGADT7 fusions in yeast Y187; screened on DDO, DDO/X/A and QDO/X/A; also with phytohormones and inhibitors of auxin signaling (PCIB) and transport (TIBA, NPA), which did not affect the interactions"}, "[3]": {"target": "YFP175-end aa -MYBR1 (Arabidopsis thaliana) (UniProt Q9FDW1)", "assay": "split reporter; BiFC in N. benthamiana leaf epidermal cells; eYFP reconstituted from YFP1-174 and YFP175-end fusions"}},
  "note": "Results are given in words; binding and its absence hold for the method and conditions named. For some of these results: In cells and extracts the contact can be indirect. Some binding calls cover weakened binding; strength is not graded here.",
  "data": [
    {"substance": "AtMYBR2/MYB77 fused to the GAL4 activation domain (MYBR2-pGADT7) (from UniProt Q9SN12 1-301)", "values": [
      {"measurement": "binding", "setting": "[1]", "result": "binds"}
    ]},
    {"substance": "PYL1 fused to the GAL4 activation domain (pGADT7) (from UniProt Q8VZS8 1-221) (receptor)", "values": [
      {"measurement": "binding", "setting": "[1]", "result": "no binding"},
      {"measurement": "binding", "setting": "[2]", "result": "no binding"}
    ]},
    {"substance": "YFP1-174 aa -MYBR2 (from UniProt Q9SN12 1-301)", "values": [
      {"measurement": "binding", "setting": "[3]", "result": "binds"}
    ]}
  ]
}
